Among the data in PMC13083723 (Patterns, 2026) are result_ITMP values, retold here.

The whole screen tested about 5,400 compounds, of which about 190 (3.5%) showed an effect of 50% or more. The list shows a part of the results.

The test system of the experiment is Vero-E6. Briefly: primary screen, phospholipidosis by LipidTOX staining; higher = more effect of the substance. As to conditions: 10 µM. The method, boiled down: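 Drug-induced phospholipidosis detected with HCS LipidTOX Red reagent in Vero-E6 cells. Compounds tested at 10 μM, with amiodarone (10 μM) as positive control and DMSO (0.1 v/v %) as vehicle.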
On to `O=C1c2ccccc2-c2c(NCCc3ccccc3)c(=O)[nH]c3cccc1c23`, for which the result_ITMP is 1.78%.
Consider `O=C(CCCCCCC(=O)NO)NO`, for which the result_ITMP is -1.26%.
The figure for `C[C@]12CCC(=O)C=C1CCC1C2CC[C@@]2(C)C1CC[C@@H]2O` (some centres unmarked) is 2.46%; for `COc1ccccc1C(=O)Nc1cccc(NC(=O)c2cccc(C)c2)c1` it is -8.43%.
In the case of `FC(F)(F)c1ccc(CNc2ccc(Cc3c[nH]c4ncc(Cl)cc34)cn2)cn1`, the result_ITMP was -2.48%.
As to `Cn1c(=O)c2[nH]cnc2n(C)c1=O`, the result_ITMP is on record as -6.01%.
`CCC/C=C1\OC(=O)C2=C1CCC=C2`: the result_ITMP was -5.44%.
Consider `CCN1C(C)(C)CC(Oc2ccc(C(=O)Nc3ccc(NC(=O)Nc4cc(C(C)(C)C)on4)cc3)nc2)CC1(C)C`, for which the result_ITMP amounted to 1.64%.
In the case of `CS(=O)(=O)c1ccc(C2=C(c3ccccc3)C(=O)OC2)cc1`, the result_ITMP was -2.07%.
To `Oc1ccc(Cl)c2c1CCC2` belongs -3.76%; to `COc1ccc(N(C)c2nc(C)nc3ccccc23)cc1`, -0.74%; to `CSCC[C@H](NC(=O)[C@H](CC(C)C)NC(=O)CNC(=O)[C@H](Cc1ccccc1)NC(=O)[C@H](Cc1ccccc1)NC(=O)[C@H](CCC(N)=O)NC(=O)[C@H](CCC(N)=O)NC(=O)[C@@H]1CCCN1C(=O)[C@H](CCCCN)NC(=O)[C@@H]1CCCN1C(=O)[C@@H](N)CCCNC(=N)N)C(N)=O`, -6.88%.
For the compound `CC(=O)c1cc([N+](=O)[O-])c(Sc2cccc(Cl)c2Cl)s1`, the result_ITMP is -7.01%.
On to `C#C[C@]1(O)CC[C@H]2[C@@H]3CCc4cc(OC5CCCC5)ccc4[C@H]3CC[C@@]21C`, for which the result_ITMP worked out at 0.64%.
The figure for `CN(C)CCC=C1c2ccccc2CCc2ccccc21` is 39.7%; for `Cc1ccnc2c1NC(=O)c1cccnc1N2C1CC1` it is -1.9%; for `N#Cc1c[nH]c2c(C(=O)N3CCN(CCc4ccc(F)cc4)CC3)cccc12` it is 2.35%.
The figure for `CC(C)[C@H](CO)Nc1nc(Nc2cccc(Cl)c2)c2ncn(C(C)C)c2n1` is -0.71%.
For `Cc1[nH]c(=O)c(C#N)cc1-c1ccncc1`, the result_ITMP is -1.45%.
The figure for `NC(=O)OCCCc1ccccc1` is -6.09%; for `O=C(c1ccc2nccnc2c1)N1CCCCC1` it is -1.43%.
The figure for `C[C@H]1CC[C@H](n2c3cnccc3c3cnc(Nc4ccc5c(n4)CCN(C(=O)CO)C5)nc32)CC1` is -2.27%; for `CCN(CC)CCOC(=O)C1(c2ccccc2)CCCC1` it is 2.32%; for `NC(N)=NCCNS(=O)(=O)c1cccc2cnccc12` it is -3.17%.
With `COCc1nc2c(=O)n(C)c(=O)n(CC(C)C)c2[nH]1`, the result_ITMP is on record as -0.95%.
`C[C@H]1CC2C3CCC4=CC(=O)C=C[C@]4(C)[C@@]3(F)[C@@H](O)C[C@]2(C)[C@@]1(O)C(=O)CO` (some centres unmarked): the result_ITMP was determined as 2.45%.
Turning to `CC(C)C(=O)OC[C@H]1O[C@@H](n2ccc(N)nc2=O)[C@](C)(F)[C@@H]1OC(=O)C(C)C`, the result_ITMP was -2.66%.
With `C=CCN1CCN(c2nc3ccccc3nc2C#N)CC1`, the result_ITMP is 0.77%.
`Cc1c(C(N)=O)cc([N+](=O)[O-])cc1[N+](=O)[O-]`: the result_ITMP is listed as -13.1%.
As to `CC(=O)O[C@]1(C(C)=O)CC[C@H]2[C@@H]3CCC4=CC(=O)CC[C@]4(C)[C@H]3CC[C@@]21C`, the result_ITMP was -3.89%.
`CNC(=O)[C@H]1O[C@@H](n2cnc3c(NCc4cccc(I)c4)ncnc32)[C@H](O)[C@@H]1O`: the result_ITMP was -1.53%.
The figure for `NC(C(=O)O)c1ccc(C(=O)O)c(O)c1` (racemic) is 9.69%; for `NC(=O)N1c2ccccc2CC(O)c2ccccc21` (centres unmarked) it is -1.17%; for `Cc1cccc(C)c1NC(=O)C1CCCCN1C` (centres unmarked) it is 1%.
To `COc1ccc(C2C(=O)c3ccccc3C2=O)cc1` belongs -7.25%.
As for `Cc1nnc(SCC2=C(C(=O)[O-])N3C(=O)[C@@H](NC(=O)Cn4cnnn4)[C@H]3SC2)s1`, the result_ITMP was -0.51%.
In the case of `O=C(c1ccccn1)c1cnn2c(-c3ccncc3)ccnc12`, the result_ITMP is 0.82%.
With `N#Cc1ccc2[nH]cc(CCCCN3CCN(c4ccc5oc(C(N)=O)cc5c4)CC3)c2c1`, the result_ITMP came to 12.9%.
The figure for `CN1C(C(=O)Nc2ccccn2)=C(O)c2sccc2S1(=O)=O` is -7.11%; for `COc1cc(/C=C2\CCC/C(=C\c3ccc(O)c(OC)c3)C2=O)ccc1O` it is -5.15%.
In the case of `Cc1cccn2c(=O)c(-c3nn[n-]n3)cnc12`, the result_ITMP is on record as -2.44%.
To `Cc1ncc([N+](=O)[O-])n1CC(O)CCl` (centres unmarked) belongs 12.3%.
To `C=CC(=O)c1ccc2ccccc2c1` belongs -1.21%; to `C=CCOc1ccc(CC(=O)O)cc1Cl`, -0.67%.
For the compound `N=C(NCc1ccc(Cl)cc1)SCCCc1c[nH]cn1`, the result_ITMP turned out to be 17.5%.
Consider `COC(=O)C1=C(C)NC(C)=C(C(=O)O[C@H]2CCN(Cc3ccccc3)C2)[C@H]1c1cccc([N+](=O)[O-])c1`, for which the result_ITMP was 21.2%.
The figure for `CNC(=O)N(C)N=O` is -2.57%; for `CC(C)(C)c1ccc(CN2CCN(C(c3ccccc3)c3ccc(Cl)cc3)CC2)cc1` (centres unmarked) it is 1.77%; for `Cc1cc(N2CCCCC2)nc2ccccc12` it is -2.64%.
For the compound `C[C@@H](c1ccc2nccn2c1)n1nnc2ncc(-c3cnn(C)c3)nc21`, the result_ITMP is -1.11%.
The figure for `COc1ccc2c(c1)C=C1Cn3c-2c(C2CCCCC2)c2ccc(cc23)C(=O)NS(=O)(=O)N(C)CCOCCN(C)C1=O` is -1.79%.
For the compound `COc1cc2c(cc1OC)C(=O)C(CC1CCN(Cc3ccccc3)CC1)C2` (centres unmarked), the result_ITMP is on record as -1.55%.
To `COc1ccc(S(=O)(=O)Nc2nc(-c3cccc([N+](=O)[O-])c3)cs2)cc1OC` belongs -5.47%; to `Cc1cc(-c2nc3cc(F)ccc3s2)ccc1NC(=O)[C@@H](N)CCCCN`, 0.55%.
To `O=C(CCCN1CCC(O)(c2ccc(Br)cc2)CC1)c1ccc(F)cc1` belongs 14.8%; to `C[C@@H](Oc1cc(-n2cnc3ccc(CN4CCN(C)CC4)cc32)sc1C(N)=O)c1ccccc1C(F)(F)F`, 75.1%.
Regarding `CNCC[C@H](Oc1cccc2ccccc12)c1cccs1`, the result_ITMP came out at 92.6%.
The figure for `COc1cc(OC)c(OC)cc1C=O` is -1.77%.
For the compound `C[N+]1(C)CCCC(OC(=O)C(O)(c2ccccc2)c2ccccc2)C1` (centres unmarked), the result_ITMP is on record as -2.52%.
With `Cc1cccc(C(C)c2cnc[nH]2)c1C` (centres unmarked), the result_ITMP was determined as 9.89%.
As to `OCCCNc1ccccc1`, the result_ITMP is -4.73%.
To `CC1(C)CCC[C@]2(C)[C@H]3CC(=O)O[C@]3(C)CC[C@@H]12` belongs 1.48%; to `CC(=O)c1ccc2c(c1)N(CCCN1CCC(CCO)CC1)c1ccccc1S2`, 50.4%.
To `N#Cc1cn([C@@H]2O[C@H](CO)[C@@H](O)[C@H]2O)c2ncnc(N)c12` belongs 8.12%; to `CC1(COc2ccc3c(c2)ncn3-c2ccc3cccc(N4CCC(N)CC4)c3n2)COC1`, 64.2%.
To `O=C(O)CCc1c[nH]c2ccccc12` belongs -10.1%; to `CC1(C)O[C@H]2CC(=O)OC[C@]23[C@H]2CC[C@@]4(C)[C@H](c5ccoc5)OC(=O)[C@H]5O[C@]54[C@]2(C)C(=O)C[C@@H]13`, -6.19%; to `COc1cc(Cc2cnc(N)nc2N)cc(OC)c1OC`, -2.94%.
`NC(=O)[C@H]1CCS[C@@H]2C[C@]3(CCCN3C(=O)Cc3ccc(NC(=O)COc4ccc(Cl)cc4Cl)cc3)C(=O)N12`: the result_ITMP is -1.66%.
For the compound `COc1cc2c(cc1OC)CN(CCc1ccc(NC(=O)c3cc(OC)c(OC)cc3NC(=O)c3cnc4ccccc4c3)cc1)CC2`, the result_ITMP is reported as -3.35%.
To `CCOc1nc2cccc(C(=O)OCc3oc(=O)oc3C)c2n1Cc1ccc(-c2ccccc2-c2noc([O-])n2)cc1` belongs 5.04%; to `COc1cc(N)c(Cl)cc1C(=O)NC1CN2CCC1CC2` (centres unmarked), -9.6%; to `CN(C(=O)c1ccc(F)cc1C(F)(F)F)C1CCN(c2nnc(-c3ccnn3C)c3ccccc23)CC1`, -2.91%.
As for `COc1ccccc1C1(O)CCN(CCCn2c3ccccc3c3ccccc32)CC1`, the result_ITMP turned out to be 52.4%.
To `C[C@H]1[C@H](OC(=O)CCC(=O)O)O[C@@H]2O[C@@]3(C)CC[C@H]4[C@H](C)CC[C@@H]1[C@@]24OO3` belongs 7.77%.
`C[C@H](NC(=O)[C@@H](N)Cc1ccc(O)cc1)C(=O)NCC(=O)N(C)[C@@H](Cc1ccccc1)C(=O)N[C@H](CO)CCS(C)=O` (some centres unmarked): the result_ITMP is 1.17%.
`CC(=O)C(=O)[O-]`: the result_ITMP is on record as -8.52%.
To `CCN(CC)CCOC(=O)C(c1ccccc1)C1CCCCC1` (centres unmarked) belongs 52%; to `COc1ccc([C@H]2CNC(=O)C2)cc1OC1CCCC1`, -3.42%.
For `Clc1ccc(C(c2ccc(Cl)cc2)C(Cl)(Cl)Cl)cc1`, the result_ITMP is reported as -2.17%.
